Test results published in the supplement of paper PMC12230231.
± gives the standard deviation of the averaged measurements. Restriction of a single-cycle SIVsab GFP reporter by TRIM5α v1-loop variants in CRFK cells. Human variants: read share among cells still uninfected after two challenges over input, higher = gained restriction. Rhesus variants: share among infected cells over input, higher = lost restriction. Reporter dose not given per row. No active / inactive call per row; the paper calls a change when both replicates lie above its controls (mean + 2 SD of stop or wild-type variants, or the top frameshift score). Residues outside the varied loop are taken from Swiss-Prot. The paper reads the human single-substitution scores as noise; they and the rhesus combinations repeat poorly (rank correlation 0.3 to 0.4), indel scores repeat only for the top variants, rhesus substitutions well (0.9).

The sequences below were run on SIVsab (simian immunodeficiency virus of sabaeus monkeys), single-cycle GFP reporter, in CRFK cells (assay: enrichment among uninfected cells over input (fold); higher = stronger restriction). Settings: library: human / rhesus combinations.
Experimental: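 Pools of CRFK cells expressing variants of the TRIM5α v1 loop were challenged with the single-cycle reporter, sorted by GFP and sequenced; mean of two replicates.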
For “MASGILVNVKEEVTCPICLELLTQPLSLDCGHSFCQACLTANHKKSMLDKGESSCPVCRISYQPENIRPNRHVANIVEKLREVKLSPEGQKVDHCARHGEKLLLFCQEDGKVICWLCERSQEHRGHHTFLTEEVAREYQVKLQAALEMLRQKQQEAEELEADIREEKASWKTQIQYDKTNVLADFEQLRDILDWEESNELQNLEKEEEDILKSLTNSETEMVQQTQSLRELISDLEHRLQGSVMELLQGVDGVIKRTENVTLKKPETFPKNQRRVFRAPDLKGMLEVFRELTDVRRYWVDVTVAPNNISCAVISEDKRQVSSPKPQIIYQAPGTRYQTLVNFNYCTGILGSQSITSGKHYWEVDVSKKTAWILGVCAGFQPDAMCNIEKNENYQPKYGYWVIGLEEGVKCSAFQDSSFHTPSVPFIVPLSVIICPDRVGVFLDYEACTVSFFNITNHGFLIYKFSHCSFSQPVFPYLNPRKCGVPMTLCSPSS [human TRIM5α, 330-340 = QAPGTRYQTLV]”, the enrichment was 0.0132 ± 0.0035. “MASGILVNVKEEVTCPICLELLTQPLSLDCGHSFCQACLTANHKKSMLDKGESSCPVCRISYQPENIRPNRHVANIVEKLREVKLSPEGQKVDHCARHGEKLLLFCQEDGKVICWLCERSQEHRGHHTFLTEEVAREYQVKLQAALEMLRQKQQEAEELEADIREEKASWKTQIQYDKTNVLADFEQLRDILDWEESNELQNLEKEEEDILKSLTNSETEMVQQTQSLRELISDLEHRLQGSVMELLQGVDGVIKRTENVTLKKPETFPKNQRRVFRAPDLKGMLEVFRELTDVRRYWVDVTVAPNNISCAVISEDKRQVSSPKPQIIYGAPGTRYPSLVNFNYCTGILGSQSITSGKHYWEVDVSKKTAWILGVCAGFQPDAMCNIEKNENYQPKYGYWVIGLEEGVKCSAFQDSSFHTPSVPFIVPLSVIICPDRVGVFLDYEACTVSFFNITNHGFLIYKFSHCSFSQPVFPYLNPRKCGVPMTLCSPSS [human TRIM5α, 330-340 = GAPGTRYPSLV]” showed an enrichment of 0.254 ± 0.35. For “MASGILVNVKEEVTCPICLELLTQPLSLDCGHSFCQACLTANHKKSMLDKGESSCPVCRISYQPENIRPNRHVANIVEKLREVKLSPEGQKVDHCARHGEKLLLFCQEDGKVICWLCERSQEHRGHHTFLTEEVAREYQVKLQAALEMLRQKQQEAEELEADIREEKASWKTQIQYDKTNVLADFEQLRDILDWEESNELQNLEKEEEDILKSLTNSETEMVQQTQSLRELISDLEHRLQGSVMELLQGVDGVIKRTENVTLKKPETFPKNQRRVFRAPDLKGMLEVFRELTDVRRYWVDVTVAPNNISCAVISEDKRQVSSPKPQIIYQARGTLFQSFVNFNYCTGILGSQSITSGKHYWEVDVSKKTAWILGVCAGFQPDAMCNIEKNENYQPKYGYWVIGLEEGVKCSAFQDSSFHTPSVPFIVPLSVIICPDRVGVFLDYEACTVSFFNITNHGFLIYKFSHCSFSQPVFPYLNPRKCGVPMTLCSPSS [human TRIM5α, 330-340 = QARGTLFQSFV]”, the enrichment was 0.00353 ± 0.0011. “MASGILVNVKEEVTCPICLELLTQPLSLDCGHSFCQACLTANHKKSMLDKGESSCPVCRISYQPENIRPNRHVANIVEKLREVKLSPEGQKVDHCARHGEKLLLFCQEDGKVICWLCERSQEHRGHHTFLTEEVAREYQVKLQAALEMLRQKQQEAEELEADIREEKASWKTQIQYDKTNVLADFEQLRDILDWEESNELQNLEKEEEDILKSLTNSETEMVQQTQSLRELISDLEHRLQGSVMELLQGVDGVIKRTENVTLKKPETFPKNQRRVFRAPDLKGMLEVFRELTDVRRYWVDVTVAPNNISCAVISEDKRQVSSPKPQIIYGARGTLYTFQTLTNFNYCTGILGSQSITSGKHYWEVDVSKKTAWILGVCAGFQPDAMCNIEKNENYQPKYGYWVIGLEEGVKCSAFQDSSFHTPSVPFIVPLSVIICPDRVGVFLDYEACTVSFFNITNHGFLIYKFSHCSFSQPVFPYLNPRKCGVPMTLCSPSS [human TRIM5α, 330-340 = GARGTLYTFQTLT]” was tested, and the enrichment was 0.0282 ± 0.037. Sequence “MASGILVNVKEEVTCPICLELLTQPLSLDCGHSFCQACLTANHKKSMLDKGESSCPVCRISYQPENIRPNRHVANIVEKLREVKLSPEGQKVDHCARHGEKLLLFCQEDGKVICWLCERSQEHRGHHTFLTEEVAREYQVKLQAALEMLRQKQQEAEELEADIREEKASWKTQIQYDKTNVLADFEQLRDILDWEESNELQNLEKEEEDILKSLTNSETEMVQQTQSLRELISDLEHRLQGSVMELLQGVDGVIKRTENVTLKKPETFPKNQRRVFRAPDLKGMLEVFRELTDVRRYWVDVTVAPNNISCAVISEDKRQVSSPKPQIIYGAPGTLYTFQSFVNFNYCTGILGSQSITSGKHYWEVDVSKKTAWILGVCAGFQPDAMCNIEKNENYQPKYGYWVIGLEEGVKCSAFQDSSFHTPSVPFIVPLSVIICPDRVGVFLDYEACTVSFFNITNHGFLIYKFSHCSFSQPVFPYLNPRKCGVPMTLCSPSS [human TRIM5α, 330-340 = GAPGTLYTFQSFV]” has an enrichment of 0.0585 ± 0.081. Sequence “MASGILVNVKEEVTCPICLELLTQPLSLDCGHSFCQACLTANHKKSMLDKGESSCPVCRISYQPENIRPNRHVANIVEKLREVKLSPEGQKVDHCARHGEKLLLFCQEDGKVICWLCERSQEHRGHHTFLTEEVAREYQVKLQAALEMLRQKQQEAEELEADIREEKASWKTQIQYDKTNVLADFEQLRDILDWEESNELQNLEKEEEDILKSLTNSETEMVQQTQSLRELISDLEHRLQGSVMELLQGVDGVIKRTENVTLKKPETFPKNQRRVFRAPDLKGMLEVFRELTDVRRYWVDVTVAPNNISCAVISEDKRQVSSPKPQIIYGARGTLFTFPSLTNFNYCTGILGSQSITSGKHYWEVDVSKKTAWILGVCAGFQPDAMCNIEKNENYQPKYGYWVIGLEEGVKCSAFQDSSFHTPSVPFIVPLSVIICPDRVGVFLDYEACTVSFFNITNHGFLIYKFSHCSFSQPVFPYLNPRKCGVPMTLCSPSS [human TRIM5α, 330-340 = GARGTLFTFPSLT]” has an enrichment of 0.303 ± 0.14.

Same assay, conditions: library: insertions and deletions
“MASGILVNVKEEVTCPICLELLTQPLSLDCGHSFCQACLTANHKKSMLDKGESSCPVCRISYQPENIRPNRHVANIVEKLREVKLSPEGQKVDHCARHGEKLLLFCQEDGKVICWLCERSQEHRGHHTFLTEEVAREYQVKLQAALEMLRQKQQEAEELEADIREEKASWKTQIQYDKTNVLADFEQLRDILDWEESNELQNLEKEEEDILKSLTNSETEMVQQTQSLRELISDLEHRLQGSVMELLQGVDGVIKRTENVTLKKPETFPKNQRRVFRAPDLKGMLEVFRELTDVRRYWVDVTVAPNNISCAVISEDKRQVSSPKPQIIYGARGTRYQFVNFNYCTGILGSQSITSGKHYWEVDVSKKTAWILGVCAGFQPDAMCNIEKNENYQPKYGYWVIGLEEGVKCSAFQDSSFHTPSVPFIVPLSVIICPDRVGVFLDYEACTVSFFNITNHGFLIYKFSHCSFSQPVFPYLNPRKCGVPMTLCSPSS [human TRIM5α, 1-codon deletion at 338]” gave an enrichment of 0.306 ± 0.11. In the case of “MASGILVNVKEEVTCPICLELLTQPLSLDCGHSFCQACLTANHKKSMLDKGESSCPVCRISYQPENIRPNRHVANIVEKLREVKLSPEGQKVDHCARHGEKLLLFCQEDGKVICWLCERSQEHRGHHTFLTEEVAREYQVKLQAALEMLRQKQQEAEELEADIREEKASWKTQIQYDKTNVLADFEQLRDILDWEESNELQNLEKEEEDILKSLTNSETEMVQQTQSLRELISDLEHRLQGSVMELLQGVDGVIKRTENVTLKKPETFPKNQRRVFRAPDLKGMLEVFRELTDVRRYWVDVTVAPNNISCAVISEDKRQVSSPKPQIIYGARGTRYQTFVNFNYCTGICTGILGSQSITSGKHYWEVDVSKKTAWILGVCAGFQPDAMCNIEKNENYQPKYGYWVIGLEEGVKCSAFQDSSFHTPSVPFIVPLSVIICPDRVGVFLDYEACTVSFFNITNHGFLIYKFSHCSFSQPVFPYLNPRKCGVPMTLCSPSS [human TRIM5α, 4-codon duplication at 345]”, the enrichment is reported as 0.787 ± 0.38. With “MASGILVNVKEEVTCPICLELLTQPLSLDCGHSFCQACLTANHKKSMLDKGESSCPVCRISYQPENIRPNRHVANIVEKLREVKLSPEGQKVDHCARHGEKLLLFCQEDGKVICWLCERSQEHRGHHTFLTEEVAREYQVKLQAALEMLRQKQQEAEELEADIREEKASWKTQIQYDKTNVLADFEQLRDILDWEESNELQNLEKEEEDILKSLTNSETEMVQQTQSLRELISDLEHRLQGSVMELLQGVDGVIKRTENVTLKKPETFPKNQRRVFRAPDLKGMLEVFRELTDVRRYWVDVTVAPNNISCAVISEDKRQVSSPKPQIIYGARGTRYQTFVNFNYCTGIFNYCTGILGSQSITSGKHYWEVDVSKKTAWILGVCAGFQPDAMCNIEKNENYQPKYGYWVIGLEEGVKCSAFQDSSFHTPSVPFIVPLSVIICPDRVGVFLDYEACTVSFFNITNHGFLIYKFSHCSFSQPVFPYLNPRKCGVPMTLCSPSS [human TRIM5α, 7-codon duplication at 342]” the enrichment was 0.377 ± 0.33. For “MASGILVNVKEEVTCPICLELLTQPLSLDCGHSFCQACLTANHKKSMLDKGESSCPVCRISYQPENIRPNRHVANIVEKLREVKLSPEGQKVDHCARHGEKLLLFCQEDGKVICWLCERSQEHRGHHTFLTEEVAREYQVKLQAALEMLRQKQQEAEELEADIREEKASWKTQIQYDKTNVLADFEQLRDILDWEESNELQNLEKEEEDILKSLTNSETEMVQQTQSLRELISDLEHRLQGSVMELLQGVDGVIKRTENVTLKKPETFPKNQRRVFRAPDLKGMLEVFRELTDVRRYWVDVTVAPNNISCAVISEDKRQVSSPKPQIIYGARGTRYQTFVNFNNYCTGILGSQSITSGKHYWEVDVSKKTAWILGVCAGFQPDAMCNIEKNENYQPKYGYWVIGLEEGVKCSAFQDSSFHTPSVPFIVPLSVIICPDRVGVFLDYEACTVSFFNITNHGFLIYKFSHCSFSQPVFPYLNPRKCGVPMTLCSPSS [human TRIM5α, 1-codon duplication at 343]”, the enrichment was 0.55 ± 0.083. With “MASGILVNVKEEVTCPICLELLTQPLSLDCGHSFCQACLTANHKKSMLDKGESSCPVCRISYQPENIRPNRHVANIVEKLREVKLSPEGQKVDHCARHGEKLLLFCQEDGKVICWLCERSQEHRGHHTFLTEEVAREYQVKLQAALEMLRQKQQEAEELEADIREEKASWKTQIQYDKTNVLADFEQLRDILDWEESNELQNLEKEEEDILKSLTNSETEMVQQTQSLRELISDLEHRLQGSVMELLQGVDGVIKRTENVTLKKPETFPKNQRRVFRAPDLKGMLEVFRELTDVRRYWVDVTVAPNNISCAVISEDKRQVSSPKPQIYGARGTRYQTFVNFNYCTGILGSQSITSGKHYWEVDVSKKTAWILGVCAGFQPDAMCNIEKNENYQPKYGYWVIGLEEGVKCSAFQDSSFHTPSVPFIVPLSVIICPDRVGVFLDYEACTVSFFNITNHGFLIYKFSHCSFSQPVFPYLNPRKCGVPMTLCSPSS [human TRIM5α, 1-codon deletion at 328]” the enrichment was 0.7 ± 0.09. “MASGILVNVKEEVTCPICLELLTQPLSLDCGHSFCQACLTANHKKSMLDKGESSCPVCRISYQPENIRPNRHVANIVEKLREVKLSPEGQKVDHCARHGEKLLLFCQEDGKVICWLCERSQEHRGHHTFLTEEVAREYQVKLQAALEMLRQKQQEAEELEADIREEKASWKTQIQYDKTNVLADFEQLRDILDWEESNELQNLEKEEEDILKSLTNSETEMVQQTQSLRELISDLEHRLQGSVMELLQGVDGVIKRTENVTLKKPETFPKNQRRVFRAPDLKGMLEVFRELTDVRRYWVDVTVAPNNISCAVISEDKRQVSSPKRGTRYQTFVNFNYCTGILGSQSITSGKHYWEVDVSKKTAWILGVCAGFQPDAMCNIEKNENYQPKYGYWVIGLEEGVKCSAFQDSSFHTPSVPFIVPLSVIICPDRVGVFLDYEACTVSFFNITNHGFLIYKFSHCSFSQPVFPYLNPRKCGVPMTLCSPSS [human TRIM5α, 7-codon deletion at 325]” gave an enrichment of 1.84 ± 1.4.
